Among all 390,000 compounds or so, about 2,200 (0.56%) were called active. Inconclusive results, whose numbers are uncertain, are shown with a selection of clear calls. Calls follow the shape of the dose curve; as a rule, active = well fitted inhibition curve with a large enough effect; inconclusive = small, poorly fitted or top-dose-only effect; inactive = no such curve, though single readings can be large or run the other way. A potency beside an inconclusive call is a rough fit, not a confirmed value.
These molecules were tested against Chromobox protein homolog 1 (Homo sapiens) (UniProt P83916) (assay: HTS for Inhibitors of HP1-beta Chromodomain Interactions with Methylated Histone Tails). Conditions: AlphaScreen HP1-beta / biotin-H3K9me3 peptide binding; series mostly up to 114 µM; activity change, negative = inhibition: at the top concentration.
Sequence of UniProt P83916 (P83916 whole entry, looked up): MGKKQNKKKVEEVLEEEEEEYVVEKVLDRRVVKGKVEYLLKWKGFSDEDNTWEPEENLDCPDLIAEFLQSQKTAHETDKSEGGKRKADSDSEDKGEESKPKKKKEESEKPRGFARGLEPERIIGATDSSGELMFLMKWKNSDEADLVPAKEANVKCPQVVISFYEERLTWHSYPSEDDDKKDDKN
Procedure, shortened: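 Compound inhibition of the preformed complex between 50 nM HP1-beta and 50 nM biotinylated H3K9me3 peptide was read by AlphaScreen. Buffer was PBS pH 7.4 with 0.01% Tween-20. Incubations ran 30 min at room temperature, with 10 ug/mL donor/acceptor beads.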
Also: nearly all actives have a fitted effect of over 70% in size.
Potency is read from the fitted curve at half-maximal effect; tags tell the direction and shape of the fitted curve.

Structure (SMILES)	activity change, negative = inhibition	Potency
COc1ccc(S(=O)(=O)N2CCCCCC2)cc1NC(=O)CC1OC(=O)c2ccccc21 (centres undefined)	inactive: 20.5%	–
CCOC(=O)c1c(NC(=O)/C=C/c2ccc(C)o2)sc(C)c1C	–	inconclusive: 28.2 µM [inhibitor, full curve]
CCN(Cc1ccccc1)c1ccc(/C=N/NS(=O)(=O)c2cccc([N+](=O)[O-])c2)cc1	–	inconclusive: 15.8 µM [inhibitor, partial curve, poor fit]
CN(C)c1ccc(C2SCCN2C(=O)c2ccc([N+](=O)[O-])cc2)cc1 (centres undefined)	–	inconclusive: 56.2 µM [inhibitor, partial curve, poor fit]
Cc1ccc(N2CCN(/N=C/c3cccnc3)CC2)cc1	inactive: -12.3%	–
COc1cccc(CNS(=O)(=O)c2ccc3[nH]c4c(c3c2)CCCCC4)c1	–	inconclusive: 50.1 µM [inhibitor, partial curve]
C(=N\Nc1nc2ccccc2s1)/c1ccccn1	–	inconclusive: 79.4 µM [inhibitor, single point]
CN(C)c1ccc(C(=S)N2CCN(c3ccc([N+](=O)[O-])cc3)CC2)cc1	–	inconclusive: 3.98 µM [inhibitor, full curve]
CC(C)CC(=O)N1CCN(Cc2ccc3ccccc3c2)CC1	–	inconclusive: 20 µM [inhibitor, full curve]
COc1cccc(NC(=S)NC(=O)c2cccnc2)c1	inactive: 21.2%	–
C/C(=N\N=C(c1ccccc1)c1ccccc1)c1ccco1	–	inconclusive: 56.2 µM [inhibitor, partial curve, poor fit]
CC(=O)N(Cc1ccco1)c1nc(C(=O)Nc2ccc(Cl)cc2)c(C)s1	–	inconclusive: 22.4 µM [inhibitor, partial curve, poor fit]
CCCc1cc(=O)oc2c3c(c4c(c12)OC(C)(C)C=C4)OC(C)C(C)C3O (centres undefined)	inactive: 78.5%	–
CNc1oc(Cc2ccccc2)nc1S(=O)(=O)c1ccccc1	–	inconclusive: 4.47 µM [inhibitor, partial curve, poor fit]
CC1=NN(C(N)=S)C(=O)C1N=Nc1ccc([N+](=O)[O-])cc1 (centres undefined)	–	inconclusive: 25.1 µM [inhibitor, full curve]
CC1CCCN(S(=O)(=O)c2ccc3[nH]c4c(c3c2)CCCC4)C1 (centres undefined)	–	inconclusive: 25.1 µM [inhibitor, full curve]
C/C(=N\NC(=O)CN(c1ccccc1Br)S(C)(=O)=O)c1ccc2c(c1)OCCO2	–	inconclusive: 89.1 µM [inhibitor, single point]
COCCNc1ccc([N+](=O)[O-])cc1C(=O)NC1CCCc2ccccc21 (centres undefined)	–	inconclusive: 70.8 µM [inhibitor, partial curve]
Cn1cc(-c2cc3n(n2)CCC(=O)N3CCCC(=O)NCc2ccc(F)cc2)c2ccccc21	inactive: 21.2% [at 57 µM]	–
CCCC[n+]1c(-c2ccc(Cl)cc2Cl)csc1Nc1ccccc1	–	inconclusive: 28.2 µM [inhibitor, partial curve, poor fit]
Cc1ccc2oc3c(c(=O)c2c1)C(c1ccccc1F)N(c1ccccn1)C3=O (centres undefined)	inactive: 15.9%	–
N#C/C(=C\c1ccc(O)c(O)c1)C(=O)NCCCc1ccccc1	–	inconclusive: 6.31 µM [inhibitor, full curve]

Structure (SMILES)	activity change, negative = inhibition	Potency
Cc1cc(N/N=C/c2ccc(O)cc2)c2cccc(C)c2n1	–	inconclusive: 79.4 µM [inhibitor, single point]
CCc1ccc(OCCCC(=O)NCc2ccccc2)cc1	–	inconclusive: 39.8 µM [inhibitor, single point]
C[N+]1(CC(=O)OCCCC2CCCCC2)CCCC1	–	inconclusive: 39.8 µM [inhibitor, single point]
Cc1cc(C)nc(N2N=C(C(C)(C)C)CC2=O)n1	inactive: 31.8%	–
CC(C)NC(=O)COc1ccc(/C=N/NS(=O)(=O)c2ccccc2)cc1	inactive: 33.7%	–
Cc1ccc(NC(=O)CSc2nccn2C)cc1S(=O)(=O)N1CCOCC1	–	inconclusive: 35.5 µM [inhibitor, single point]
CN(C)c1ccc(NC(=O)c2cn(-c3ccccc3)nc2-c2cccs2)cc1	–	inconclusive: 17.8 µM [inhibitor, full curve, poor fit]
CC1CCN(c2oc(-c3ccccc3Cl)nc2C#N)CC1	–	inconclusive: 25.1 µM [inhibitor, full curve, poor fit]
CN(Cc1ccccc1N1CCCC1)C(=O)c1cc2ccccc2o1	–	inconclusive: 28.2 µM [inhibitor, partial curve, poor fit]
CC1=CC(C)(C)Nc2cc(C)c(C)cc21	–	inconclusive: 70.8 µM [inhibitor, single point]
O=C(NCc1ccccn1)C1(C(F)(F)F)C/C(=C\CCO)CCCO1 (centres undefined)	–	inactive
CSCCOC(=O)C1=C(C)NC(=O)NC1c1ccc2c(c1)OCO2 (centres undefined)	inactive: 19.4%	–
CC(OC(=O)Cc1c[nH]c2ccccc12)C(=O)Nc1ccccc1[N+](=O)[O-] (centres undefined)	–	inconclusive: 44.7 µM [inhibitor, partial curve]
O=C(CSc1ncn(-c2ccccc2)n1)Nc1ccc2c(c1)OCO2	inactive: 12.1%	–
Cc1cc(N(CCO)CCO)ccc1C(c1ccc(N(CCO)CCO)cc1C)c1ccccc1Cl	–	inconclusive: 50.1 µM [inhibitor, single point]
O=C(Nc1ccc(C(=O)N2CCOCC2)cc1)C1CCC1	inactive: 38.3%	–
CC(=O)N1CCCc2cc(S(=O)(=O)N3CCC(C(=O)N(C)C4CCCCC4)CC3)ccc21	inactive: 26.2% [at 57 µM]	–
CCNC(=O)COn1c(SCC(=O)NCC)nc2ccccc2c1=O	inactive: 34.8%	–
O=C(c1ccc([N+](=O)[O-])cc1)n1nc(-c2ccccc2)nc1NCc1ccccc1	–	inconclusive: 17.8 µM [inhibitor, partial curve, poor fit]
O=S(=O)(c1cccs1)N1CCN(CC(O)COC2CCCc3ccccc32)CC1 (centres undefined)	–	inconclusive: 31.6 µM [inhibitor, partial curve]
CCOc1ccc2nc3cc(N=Nc4ccc(N)nc4N)ccc3c(N)c2c1	–	inconclusive: 56.2 µM [inhibitor, partial curve, poor fit]
COc1cc(C2C(C#N)=C(N)Oc3cc4c(cc32)OCO4)cc(OC)c1OC (centres undefined)	–	inconclusive: 89.1 µM [inhibitor, single point]
